Experimental data published in the supplement of paper PMC6206098.
± gives the uncertainty stated by the source. The sequences are guide strands of siRNAs; only the seed at positions 2 to 7 varies.

How the values were obtained:
H460 = assay: cell viability relative to lipid-only control; higher = less toxic; conditions: concentration: 10 nM; 96 h; Homo sapiens
Description: (§1)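 Arrayed screen of 4096 siRNA duplexes, each carrying one of all possible 6mer seeds at guide-strand positions 2-7 in a fixed neutral 19mer scaffold (constant flanks: U at position 1, then ACAUGUAAACCA, plus a 3' AA overhang). The passenger strand is 2'-O-methylated at positions 1-2 so only the guide strand loads into RISC. Duplexes were reverse-transfected at 10 nM with RNAiMAX in triplicate in 384-well plates; viability was read by CellTiter-Glo ATP content 96 h after transfection. Values are % viability normalised to lipid-only wells (HeyA8, H460, M565) or to siNT1 (3LL).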

HeyA8 = assay: as above; conditions: concentration: 10 nM; 96 h; Homo sapiens
Description: as §1

M565 = assay: as above; conditions: concentration: 10 nM; 96 h; Mus musculus
Description: as §1

3LL = assay: cell viability relative to siNT1 control; HeyA8 human ovarian and H460 human lung cancer; M565 mouse liver and 3LL mouse lung cancer; siNT1 is a non-toxic control siRNA; higher = less toxic; conditions: concentration: 10 nM; 96 h; Mus musculus
Description: as §1
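Throughout, for cell viability relative to lipid-only control: reverse lipid transfection in 384-well plates, in triplicate, of duplexes on a non-toxic 19mer backbone with passenger strand 2′-O-methylated at positions 1 and 2, luminescence viability read-out.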
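Throughout, for cell viability relative to siNT1 control: Luminescence-based viability of cells reverse transfected in 384-well plates with lipid-complexed siRNAs built on a non-toxic 19mer backbone whose passenger strand carries 2′-O-methyl groups at positions 1 and 2, triplicates.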

| Sequence | cell viability (H460) [%] | cell viability (HeyA8) [%] | cell viability (M565) [%] | cell viability (3LL) [%] |
| --- | --- | --- | --- | --- |
| UGUACCGACAUGUAAACCAAA | 61.4 ± 3.1 | 79.7 ± 3.1 | 37.6 ± 13 | 73.7 ± 13 |
| UAGCCCAACAUGUAAACCAAA | 40.9 ± 3.4 | 67.4 ± 3.2 | 15.6 ± 0.67 | 24.8 ± 2.5 |
| UCUUGCUACAUGUAAACCAAA | 46.9 ± 2.9 | 53.8 ± 3.5 | 71.9 ± 5 | 77.6 ± 15 |
| UACACCCACAUGUAAACCAAA | 41 ± 6.6 | 24.2 ± 1.7 | 21.2 ± 1.9 | 40.7 ± 9.5 |
| UUUGUCCACAUGUAAACCAAA | 54.2 ± 8.1 | 85.7 ± 4.7 | 48.3 ± 13 | 57.8 ± 9 |
| UCCUAACACAUGUAAACCAAA | 70.9 ± 3.6 | 76.7 ± 6.3 | 80.9 ± 5 | 78.1 ± 14 |
| UUAAAAGACAUGUAAACCAAA | 85.1 ± 24 | 96.8 ± 4.1 | 96.9 ± 22 | 105 ± 13 |
| UGCCGUUACAUGUAAACCAAA | 67.4 ± 11 | 65.4 ± 1.6 | 34.8 ± 4.8 | 57.5 ± 15 |
| UAUUCUCACAUGUAAACCAAA | 60.7 ± 7.3 | 86.1 ± 11 | 38.6 ± 3.5 | 41.9 ± 5 |
| UUAGUAUACAUGUAAACCAAA | 45.4 ± 6.1 | 65.1 ± 4.8 | 113 ± 8.8 | 106 ± 10 |
| UGUGCGCACAUGUAAACCAAA | 50.9 ± 11 | 61.6 ± 6.7 | 63.7 ± 12 | 61.4 ± 11 |
| UCAUGCUACAUGUAAACCAAA | 20.5 ± 1.4 | 8.39 ± 0.69 | 33.9 ± 6 | 28.3 ± 1.9 |
| UUAAACGACAUGUAAACCAAA | 66.3 ± 6 | 95.4 ± 7.1 | 105 ± 6.9 | 91.2 ± 7.6 |
| UAGUUCGACAUGUAAACCAAA | 62.8 ± 7.8 | 61 ± 5.4 | 23.3 ± 1.3 | 77.9 ± 1.3 |
| UACUGAAACAUGUAAACCAAA | 75.1 ± 15 | 107 ± 14 | 75.5 ± 5.8 | 93.3 ± 8.8 |
| UAAUGUUACAUGUAAACCAAA | 75.2 ± 7.7 | 93.7 ± 7.8 | 59.5 ± 18 | 65.7 ± 5.8 |
| UGUGGCCACAUGUAAACCAAA | 27.8 ± 2.4 | 36 ± 5.5 | 8.78 ± 3.3 | 16.9 ± 12 |
| UUCUUGAACAUGUAAACCAAA | 66.2 ± 2.9 | 80.2 ± 4.6 | 106 ± 33 | 80.1 ± 6.6 |
| UAACACGACAUGUAAACCAAA | 48.9 ± 10 | 92.8 ± 8.1 | 73.9 ± 9.5 | 95.9 ± 9.1 |
| UGAUCGGACAUGUAAACCAAA | 62.1 ± 11 | 77.5 ± 9 | 15 ± 0.4 | 13.2 ± 0.93 |
| UGGCGCCACAUGUAAACCAAA | 23.5 ± 5.4 | 9.16 ± 0.76 | 21 ± 1.2 | 22.9 ± 6.8 |
| UAUCUUUACAUGUAAACCAAA | 64.3 ± 2.2 | 82.3 ± 1.5 | 109 ± 17 | 86.7 ± 2.8 |

| Sequence | cell viability (H460) [%] | cell viability (HeyA8) [%] | cell viability (M565) [%] | cell viability (3LL) [%] |
| --- | --- | --- | --- | --- |
| UACCCGGACAUGUAAACCAAA | 64.2 ± 6.6 | 80.4 ± 12 | 44.2 ± 14 | 73.3 ± 5.6 |
| UAAACCUACAUGUAAACCAAA | 72.5 ± 8.2 | 68.7 ± 10 | 85.8 ± 14 | 86.1 ± 3 |
| UGGCCACACAUGUAAACCAAA | 37.5 ± 6.8 | 15.1 ± 1.4 | 22.1 ± 4 | 64.4 ± 13 |
| UCCACCGACAUGUAAACCAAA | 54.6 ± 7.2 | 70.1 ± 8.3 | 66.8 ± 15 | 110 ± 18 |
| UGUCCUCACAUGUAAACCAAA | 5.74 ± 0.62 | 5.98 ± 0.35 | 13.1 ± 1.1 | 7.57 ± 1.6 |
| UCCGCACACAUGUAAACCAAA | 57.6 ± 4.9 | 75.4 ± 10 | 59 ± 12 | 91.4 ± 21 |
| UCGCGCGACAUGUAAACCAAA | 74.8 ± 17 | 68.5 ± 2.1 | 63.8 ± 10 | 97.9 ± 15 |
| UAGGUUGACAUGUAAACCAAA | 82.3 ± 16 | 81.3 ± 4.9 | 55 ± 7 | 92.6 ± 1.1 |
| UCCCCCUACAUGUAAACCAAA | 62.2 ± 5.4 | 52.8 ± 7.8 | 32.1 ± 3.4 | 74.4 ± 17 |
| UAAUCUUACAUGUAAACCAAA | 92.2 ± 14 | 68.6 ± 3 | 93.4 ± 23 | 122 ± 10 |
| UACAAAGACAUGUAAACCAAA | 94.3 ± 7.7 | 80.4 ± 1.8 | 74.9 ± 11 | 84.3 ± 7.2 |
| UUGACUUACAUGUAAACCAAA | 67.9 ± 11 | 96.3 ± 6.9 | 83.8 ± 17 | 94.1 ± 3.6 |
| UUGUCCUACAUGUAAACCAAA | 41.8 ± 7.6 | 80.5 ± 5.9 | 31.1 ± 5.5 | 29.7 ± 0.74 |
| UCUAGCCACAUGUAAACCAAA | 20.3 ± 0.67 | 20.3 ± 3.3 | 28.9 ± 2.7 | 74.1 ± 16 |
| UCUCGACACAUGUAAACCAAA | 38.1 ± 0.56 | 81.6 ± 5.2 | 65.7 ± 17 | 94.1 ± 15 |
| UGACGGAACAUGUAAACCAAA | 48.1 ± 5.2 | 71.8 ± 3.4 | 46.5 ± 7.3 | 79.4 ± 1.3 |
| UCGACACACAUGUAAACCAAA | 82.1 ± 7.8 | 78.4 ± 4.8 | 67.2 ± 11 | 90.7 ± 18 |
| UCGAUGCACAUGUAAACCAAA | 32.5 ± 5.1 | 25.8 ± 1.7 | 60.8 ± 6.2 | 60.1 ± 15 |
| UGAACAUACAUGUAAACCAAA | 82.4 ± 16 | 49.5 ± 23 | 65.6 ± 9.3 | 89.7 ± 17 |
| UAUAUUGACAUGUAAACCAAA | 68.1 ± 5.6 | 93.4 ± 8.6 | 77.5 ± 7.2 | 106 ± 18 |
| UGUAUUCACAUGUAAACCAAA | 49.4 ± 4.6 | 9.51 ± 1.8 | 33.3 ± 1.8 | 56.3 ± 16 |
| UGCACGCACAUGUAAACCAAA | 50.7 ± 4 | 80.5 ± 12 | 92.1 ± 2.3 | 43.8 ± 11 |
